# In PubChem BioAssay AID1460 (National Center for Advancing Translational Sciences (NCATS), 2008):
# About 5,800 (2.1%) of roughly 270,000 compounds were called active. This list was built around the results that the source calls inconclusive (neither active nor inactive); the mix of calls is not that of the screen. Calls follow the shape of the dose curve; as a rule, active = well fitted inhibition curve with a large enough effect; inconclusive = small, poorly fitted or top-dose-only effect; inactive = flat fitted curve, though single readings scatter. Potencies beside an inconclusive call are fits to weak or partial responses and may not hold up.
# Biological target: Microtubule-associated protein tau (Homo sapiens) (UniProt P10636)
# Assay: qHTS for Inhibitors of Tau Fibril Formation, Thioflavin T Binding; also: nearly all actives have a fitted effect of over 55% in size
# Conditions: recombinant tau K18 P301L (four-repeat tau fragment), heparin-induced fibrillization, ThT fluorescence; series mostly up to 57.4 µM
# Summary of the method: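 Heparin-induced fibrillization of the P301L-mutant K18 repeat-domain fragment of human tau was followed by ThT binding in quantitative high-throughput format.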
# Potency is read from the fitted curve at half-maximal effect; tags tell the direction and shape of the fitted curve.
# UniProt P10636, sequence (P10636 whole entry, looked up): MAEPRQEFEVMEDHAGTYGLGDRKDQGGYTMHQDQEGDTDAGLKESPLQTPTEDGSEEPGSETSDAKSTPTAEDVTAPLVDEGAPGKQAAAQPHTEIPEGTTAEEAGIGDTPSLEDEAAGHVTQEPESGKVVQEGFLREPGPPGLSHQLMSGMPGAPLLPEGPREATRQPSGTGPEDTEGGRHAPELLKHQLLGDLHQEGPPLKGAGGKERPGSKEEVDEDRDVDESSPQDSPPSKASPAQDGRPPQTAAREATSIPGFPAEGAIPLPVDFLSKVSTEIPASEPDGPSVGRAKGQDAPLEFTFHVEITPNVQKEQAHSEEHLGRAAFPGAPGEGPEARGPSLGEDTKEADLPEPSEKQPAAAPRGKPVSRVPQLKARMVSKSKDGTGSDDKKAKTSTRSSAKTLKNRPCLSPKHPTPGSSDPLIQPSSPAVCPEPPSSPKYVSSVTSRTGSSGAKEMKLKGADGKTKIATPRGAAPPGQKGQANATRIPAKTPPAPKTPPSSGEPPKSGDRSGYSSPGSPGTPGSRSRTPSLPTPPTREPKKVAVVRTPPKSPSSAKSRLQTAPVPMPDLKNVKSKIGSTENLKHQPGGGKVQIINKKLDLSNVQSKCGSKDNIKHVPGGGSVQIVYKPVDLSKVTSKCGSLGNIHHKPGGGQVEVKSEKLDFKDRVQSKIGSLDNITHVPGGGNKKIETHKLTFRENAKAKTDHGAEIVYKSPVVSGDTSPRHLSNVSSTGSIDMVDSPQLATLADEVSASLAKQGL
row,Compound,Potency
1,Fc1ccc(Nc2nc(SCc3ccccc3F)nc3ccccc23)cc1,"inconclusive: 35.5 µM [activator, partial curve]"
2,NS(=O)(=O)c1ccc(NC(=O)COC(=O)c2ccc([N+](=O)[O-])s2)cc1,"inconclusive: 25.1 µM [inhibitor, partial curve, poor fit]"
3,C/C(=N/Nc1ccc(F)cc1)c1ccc(Cl)s1,"inconclusive: 14.1 µM [inhibitor, partial curve]"
4,Cc1ccc(/C=N/NC(=O)c2csc(C)c2)o1,"inconclusive: 17.8 µM [inhibitor, single point]"
5,Cc1ccccc1CNS(=O)(=O)c1ccccc1[N+](=O)[O-],inactive
6,CCCc1nc2ccc(NC(=O)c3ccco3)cc2c(=O)n1Cc1ccccc1Cl,inactive
7,COc1cccc(Nc2ccc(Nc3cccc(OC)c3)nn2)c1,"inconclusive: 7.94 µM [inhibitor, partial curve]"
8,FC(F)(F)c1nnc(-c2ccccc2)nc1Sc1ccccc1,"inconclusive: 11.2 µM [inhibitor, partial curve]"
9,CCCCOc1ccc(C(=O)NNC(=S)NC(=O)CC)cc1,"inconclusive: 35.5 µM [inhibitor, partial curve]"
10,COC(=O)c1sccc1-c1ccc(C(=O)Nc2cccc(Cl)c2)o1,"inconclusive: 0.891 µM [inhibitor, partial curve, poor fit]"
11,CN(CC(=O)NCc1ccc(Cl)cc1)S(=O)(=O)c1ccc2[nH]c3c(c2c1)CCCC3,inactive
12,O=C(O)c1ccccc1C(=O)N1CCN(c2cccc(Cl)c2)CC1,inactive
13,CCn1c(SCc2ccccc2C)nc(=O)c2c(C(=O)OC)cc(C3CC3)nc21,"inconclusive: 17.8 µM [inhibitor, partial curve]"
14,Cc1occc1C(=O)N=Nc1c(O)n(C)c2ccccc12,"inconclusive: 7.94 µM [inhibitor, partial curve]"
15,CCn1c(O)c(/C=N/N=C2CCCCC2)c2cc(C3=NNC(=O)CC3)ccc21,active: 10 µM
16,O=[N+]([O-])c1ccc(N2CCN(CCO)CC2)cc1NCc1ccco1,"inconclusive: 28.2 µM [inhibitor, single point]"
17,O=C(Nc1ccccc1-c1nnc(SCc2ccccc2)o1)c1ccccc1,"inconclusive: 31.6 µM [inhibitor, single point]"
18,Cc1ccc(NC(=S)NCCc2c[nH]c3ccccc23)cc1,"inconclusive: 15.8 µM [inhibitor, partial curve, poor fit]"
19,CCCCc1ccc(-c2nc(-c3ccncc3)no2)cc1,"inconclusive: 1.41 µM [inhibitor, full curve]"
20,COc1cccc(C2c3c(oc4cc(C)cc(C)c4c3=O)C(=O)N2CCc2ccc(OC)c(OC)c2)c1 (centres undefined),inactive
21,CCOc1ccc(Nc2cc(Nc3ccccc3OCC)nc(C=C(C#N)C#N)n2)cc1,active: 2.82 µM
22,Cc1c(C(=O)NCCN2C(=O)S/C(=C\c3cccnc3)C2=O)cccc1[N+](=O)[O-],"inconclusive: 35.5 µM [inhibitor, partial curve, poor fit]"

row,Compound,Potency
1,O=c1cc2c(nn1Cc1ccc(Cl)cc1Cl)-c1ccccc1CC2,"inconclusive: 39.8 µM [inhibitor, single point]"
2,Cc1cc(Cl)ccc1NC(=O)Cn1nc(C)c2c(C)n(-c3ccccc3)nc2c1=O,inactive
3,Cc1ccc(Cl)cc1Nc1nn2c(=O)c3ccc(C(=O)Nc4ccc(F)cc4)cc3nc2s1,"inconclusive: 31.6 µM [inhibitor, single point]"
4,COc1cc(OC)c2c(=O)c(-c3ccc4c(c3)OCO4)coc2c1,"inconclusive: 3.98 µM [inhibitor, full curve]"
5,O=C(O)c1ccccc1C(=O)c1ccc2c(c1)N(Cc1ccc(Cl)c(Cl)c1)C(=O)CO2,"inconclusive: 10 µM [inhibitor, partial curve]"
6,CC/C(=N\Nc1ccc([N+](=O)[O-])cc1)c1ccccc1,active: 2 µM
7,COc1ccc(NC(=O)Nc2ccc3nonc3c2)cc1,"inconclusive: 15.8 µM [inhibitor, partial curve]"
8,Cc1c(Cc2ccc3c(c2)OCO3)sc(NC(=O)c2ccc3ccccc3c2)c1C(N)=O,"inconclusive: 39.8 µM [inhibitor, single point]"
9,Cc1ccc(NC(=O)N2CCc3cc(S(=O)(=O)N4CCC(C)CC4)ccc32)cc1,inactive
10,COc1cccc(-n2cc(C(=O)Nc3cccc(C(F)(F)F)c3)c3ccccc3c2=O)c1,"inconclusive: 25.1 µM [inhibitor, partial curve]"
11,COc1ccc(C(CCN(Cc2ccc(OC)c(OC)c2)C(=O)CCl)c2ccccc2)cc1 (centres undefined),"inconclusive: 17.8 µM [inhibitor, single point]"
12,CN(C)C1(CNC(=O)COc2ccc([N+](=O)[O-])cc2)CCCCC1,inactive
13,COc1cc(C2CC(=O)Oc3cc4c(cc32)OCO4)cc(OC)c1OC (centres undefined),"inconclusive: 39.8 µM [inhibitor, partial curve]"
14,CCc1ccc(NC(=O)CCS(=O)(=O)c2cc3c(cc2Cl)NC(=O)CO3)cc1,inactive
15,NC(=S)N/N=C/c1coc2cc(Cl)ccc2c1=O,"inconclusive: 35.5 µM [inhibitor, single point]"
16,CSc1ccccc1C(=O)Nc1cc([N+](=O)[O-])ccc1C,"inconclusive: 39.8 µM [inhibitor, single point]"
17,COC(=O)c1c(-c2cccs2)csc1NC(=O)c1cccc(Cl)c1,"inconclusive: 22.4 µM [inhibitor, partial curve]"
18,COC(=O)c1c(-c2cccs2)csc1NC(=O)c1ccc(Br)cc1,active: 15.8 µM
19,CCOc1ccc(-c2cc(CCCC(=O)NCCc3ccc(Cl)cc3)no2)cc1,"inconclusive: 0.355 µM [inhibitor, full curve, poor fit]"
20,Cc1ccsc1/C=N/n1c(-c2ccccn2)n[nH]c1=S,inactive
21,Cc1nc2ccccn2c1-c1csc(Nc2cccc(O)c2)n1,inactive
22,CCOC(=O)c1ccccc1NC(=O)N1CCN(Cc2cc(=O)n3nc(-c4ccccc4)sc3n2)CC1,"inconclusive: 31.6 µM [inhibitor, single point]"
